Laboratory results as given in article PMC4336329 (PLoS ONE, 2015).
In all, about 310,000 compounds went through this assay and about 2,200 (0.71%) showed an effect of 50% or more. Effects have a minus sign here. This is one part of the list.

Molecular target: human ether-à-go-go-related gene (hERG) potassium channel (human, UniProt Q12809)
Experiment: primary screen, population patch clamp on CHO cells stably expressing hERG

human ether-à-go-go-related gene (hERG) potassium channel, sequence (Q12809 whole entry, looked up): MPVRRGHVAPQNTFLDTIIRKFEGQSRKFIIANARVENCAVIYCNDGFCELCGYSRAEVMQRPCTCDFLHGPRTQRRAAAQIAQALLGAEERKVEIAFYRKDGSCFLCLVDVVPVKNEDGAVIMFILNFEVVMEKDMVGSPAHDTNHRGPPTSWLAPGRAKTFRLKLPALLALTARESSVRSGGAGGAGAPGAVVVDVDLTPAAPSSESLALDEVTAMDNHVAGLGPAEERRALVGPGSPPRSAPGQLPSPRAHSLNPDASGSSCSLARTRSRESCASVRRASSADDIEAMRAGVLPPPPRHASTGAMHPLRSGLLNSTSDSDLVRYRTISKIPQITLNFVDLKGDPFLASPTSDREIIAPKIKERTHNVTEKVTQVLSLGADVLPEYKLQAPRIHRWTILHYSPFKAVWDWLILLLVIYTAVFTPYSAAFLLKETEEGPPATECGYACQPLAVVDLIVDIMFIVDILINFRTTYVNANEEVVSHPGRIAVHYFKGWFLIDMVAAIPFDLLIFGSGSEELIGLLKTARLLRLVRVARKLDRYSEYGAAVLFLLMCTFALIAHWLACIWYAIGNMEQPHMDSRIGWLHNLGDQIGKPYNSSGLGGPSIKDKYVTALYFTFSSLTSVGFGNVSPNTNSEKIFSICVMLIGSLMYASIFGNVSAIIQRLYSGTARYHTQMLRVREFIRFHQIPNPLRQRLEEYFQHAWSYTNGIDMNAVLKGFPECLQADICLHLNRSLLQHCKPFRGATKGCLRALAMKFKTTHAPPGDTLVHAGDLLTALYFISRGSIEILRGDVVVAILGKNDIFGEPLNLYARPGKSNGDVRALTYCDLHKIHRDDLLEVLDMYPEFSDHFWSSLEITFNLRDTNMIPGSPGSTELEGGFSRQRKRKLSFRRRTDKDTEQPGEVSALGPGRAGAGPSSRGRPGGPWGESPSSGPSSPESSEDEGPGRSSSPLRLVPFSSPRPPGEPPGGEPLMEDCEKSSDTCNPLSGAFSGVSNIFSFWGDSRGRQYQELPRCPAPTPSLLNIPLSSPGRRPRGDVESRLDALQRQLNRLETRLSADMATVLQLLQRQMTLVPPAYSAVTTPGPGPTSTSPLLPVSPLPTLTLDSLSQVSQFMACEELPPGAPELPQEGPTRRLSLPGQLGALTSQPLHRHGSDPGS

Compound | hERG current change (%, negative = inhibition) at 1uM
O=C(NCc1ccc(F)cc1)c1cnccn1 | 16%
CCCCC(O)(c1ccc(F)cc1)C(CN1CCOCC1)c1ccc(Cl)cc1.Cl (stereo not drawn) | 13.7%
COC(=O)C(C)NC(=O)C(C)NC(=O)OCc1ccccc1 (stereo not drawn) | 8.9%
COc1ccc(CCNC(=O)CSc2n[nH]c(C)c2[N+](=O)[O-])cc1OC | 4.15%
Cc1ccccc1CSCC(=O)Nc1ccccc1Br | 14.5%
CCCNC(=O)CCCN1C(=O)c2ccccc2Sc2ncccc21 | 25.4%
Cc1cc(C)n(-c2ncnc3ccccc23)n1 | 16.4%
COc1ccc(Cn2c(=S)[nH]c3ccccc32)cc1 | 4%
CC(=O)c1c(C)[nH]c(C(=O)CSc2nnc(-c3ccccc3)n2Cc2ccc3c(c2)OCO3)c1C | -0.381%
Cc1c(OCC(=O)NCc2ccccn2)ccc2c3c(c(=O)oc12)CCCC3 | 11.3%
O=C(O)CCC(=O)N1CCN(c2nc3ccccc3s2)CC1 | -2.75%
COc1ccc2c(c1)[nH]c1c(=O)n(CCC3=CCCCC3)cnc12 | 1.57%
Cc1ccc([N+](=O)[O-])cc1S(=O)(=O)Nc1ccc(C(=O)N(C)C)cc1 | 6.91%
CC1CN(C(=O)c2ccc(-c3ccccc3Cl)o2)CC(C)O1 (stereo not drawn) | 10.5%
CCOC(=O)CNC(=O)c1sc(NC(=O)c2ccccc2)nc1C | 6.33%
CCC(CC)C(=O)Nc1ccc(Nc2ccccc2)cc1 | 11.8%
O=C(CSc1nnc(CNC(=O)c2ccccc2F)o1)c1ccc(Cl)cc1 | 9.22%
COC(=O)c1cccc(NC(=S)NCc2ccc(Cl)cc2)c1 | 8.88%
COC(=O)c1ccc(NC(=S)NC2CC3CCC2C3)cc1 (stereo not drawn) | 14.7%
CCc1cc(C(=O)N(C)CC(=O)N(CC(C)C)c2c(N)n(CC(C)C)c(=O)[nH]c2=O)sc1C | 9.28%
COc1ccc(OC)c2[nH]c(=O)c(CCNC(=O)c3cc4ccccc4o3)cc12 | -1.8%
CSc1ccccc1NS(=O)(=O)c1ccc2c(c1)OCCO2 | 10.3%
CCCNc1nc(C)cc(-c2cc(C(=O)Nc3ccccc3)on2)n1 | 6.25%

Compound | hERG current change (%, negative = inhibition) at 1uM
COc1ccc(CCNC(=O)CSc2nn(-c3ccccc3)c(=S)s2)cc1 | 7.31%
Cc1ccc(-c2nnc(SCC(=O)N(C)C)nc2-c2ccc(C)cc2)cc1 | -45.5%
N#Cc1ccccc1S(=O)(=O)N1CCN(C(=O)c2ccc(-n3cncn3)c([N+](=O)[O-])c2)CC1 | 10.1%
Cc1ccc(OCCN(C)C(=O)c2cc(COc3ccc(F)cc3F)on2)cc1 | -0.323%
Cc1ccc2c(Cl)c(C(=O)NCCc3ccccc3)sc2c1 | 7.6%
CC(C)C(NS(=O)(=O)c1cccc(C(F)(F)F)c1)C(=O)N1CCc2ccccc2C1 (stereo not drawn) | 13.9%
NS(=O)(=O)c1ccc(N=NN2CCCCC2)cc1 | 5.02%
Cc1ccc(N(CC(=O)NCc2ccc(F)cc2)C(=O)c2snc(C(N)=O)c2N)cc1C | 10.8%
Cc1cc(=O)oc2cc(OCC3CC(c4ccc(Br)cc4)=NO3)ccc12 (stereo not drawn) | 21.4%
COc1cc(O)c(C(=O)/C=C/c2ccccc2)c(OC)c1 | 15.3%
COc1ccc(CCN(C)C/C=C/c2ccccc2)cc1OC | -43.3%
Cc1ccc(OCC(=O)Oc2ccc(C)c(C)c2)cc1 | 12.1%
COc1ccc(C2c3cc(OC)c(OC)cc3CCN2C(=O)c2ccccc2Br)cc1OC (stereo not drawn) | 9.35%
COc1ccc(C(=O)N/N=C\c2ccc(OC)c(COc3ccccc3Br)c2)c(OC)c1 | 8.53%
Cc1ccc(C(=O)N2CCCCC2)cc1S(=O)(=O)N1CCCCCC1 | 8.28%
C(=C\c1ccccc1)/C=N/Nc1nc(N2CCOCC2)nc(N2CCOCC2)n1 | 5.52%
N#C/C(=C\c1ccco1)c1nc2ccccc2s1 | 8.16%
CC1CCc2c(C(=O)N3CCN(S(=O)(=O)c4cccs4)CC3)csc2C1 (stereo not drawn) | 3.43%
Nc1cc(=O)[nH]c(=S)n1-c1ccccc1 | 8.75%
C[C@@H]1CN(C(=O)c2nc3ccc(Cl)cn3c2CNCC[C@@H]2C[C@@H]3C=C[C@H]2C3)C[C@H](C)O1 | 3.06%
Cc1ccc(-c2nnc(SCC(=O)Nc3ccccc3F)o2)cc1 | 10.7%
O=C(O)CCn1c2ccccc2c2nc3ccccc3nc21 | 18.2%
